{
  "source": "the supplement of paper PMC4604168 (melanoma cell lines)",
  "note": "The other results are listed elsewhere or left out. Repeats are few or missing, and single values can be far off.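 Further: cell number obtained by counting DAPI-stained nuclei in high-throughput microscope images with image analysis software, screen run in 1,536-well plates.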",
  "data": [
    {"tested_on": "LB2518-MEL", "assay": "cell count relative to DMSO control; melanoma cells; higher = more viable cells", "conditions": "library dose: low library concentration; 72 h", "units": {"cell count": "%"}, "values": [
      {"smiles": "COc1ccc(COc2ccc(Cc3cnc(N)nc3N)cc2OC)cc1", "note": "+ Cc1cc(SCc2sc(-c3ccc(C(F)(F)F)c(F)c3)nc2C)ccc1OCC(=O)O [GW0742] (first compound 1 µM, partner dose 2 µM)", "cell count": 107},
      {"smiles": "Clc1ccc(Nc2nnc(Cc3ccncc3)c3ccccc23)cc1", "note": "[vatalanib] + C[As](C)SC[C@H](NC(=O)CC[C@H](N)C(=O)O)C(=O)NCC(=O)O [Darinaparsin] (first compound 2 µM, partner dose 0.4 µM)", "cell count": 110},
      {"smiles": "COc1ccc(COc2ccc(Cc3cnc(N)nc3N)cc2OC)cc1", "note": "+ C/C(O)=C(\\C#N)C(=O)Nc1cc(Br)ccc1Br [LFM-A13] (first compound 1 µM, partner dose 2 µM)", "cell count": 90.3},
      {"smiles": "COCC[n+]1c2c(n(Cc3cnccn3)c1C)C(=O)c1ccccc1C2=O", "note": "+ Cc1cc(SCc2sc(-c3ccc(C(F)(F)F)c(F)c3)nc2C)ccc1OCC(=O)O [GW0742] (first compound 0.0004 µM, partner dose 2 µM)", "cell count": 111},
      {"smiles": "O=C(CCCCCCC(=O)Nc1ccccc1)NO", "note": "[vorinostat] + Cc1cc(SCc2sc(-c3ccc(C(F)(F)F)c(F)c3)nc2C)ccc1OCC(=O)O [GW0742] (first compound 0.08 µM, partner dose 2 µM)", "cell count": 97.1},
      {"smiles": "Cc1cc(Nc2cc(N3CCN(C)CC3)nc(Sc3ccc(NC(=O)C4CC4)cc3)n2)n[nH]1", "note": "[Tozasertib] + C[C@]12O[C@H](C[C@]1(O)CO)n1c3ccccc3c3c4c(c5c6ccccc6n2c5c31)CNC4=O [Lestaurtinib] (first compound 0.006 µM, partner dose 0.004 µM)", "cell count": 104},
      {"smiles": "O=C(O)c1ccc2c(c1)nc(Nc1cccc(Cl)c1)c1ccncc12", "note": "+ C[As](C)SC[C@H](NC(=O)CC[C@H](N)C(=O)O)C(=O)NCC(=O)O [Darinaparsin] (first compound 0.4 µM, partner dose 0.4 µM)", "cell count": 110},
      {"smiles": "Cn1c(Nc2ccc(C(F)(F)F)cc2)nc2cc(Oc3ccnc(-c4ncc(C(F)(F)F)[nH]4)c3)ccc21", "note": "+ Cc1cc(SCc2sc(-c3ccc(C(F)(F)F)c(F)c3)nc2C)ccc1OCC(=O)O [GW0742] (first compound 0.08 µM, partner dose 2 µM)", "cell count": 47.9},
      {"smiles": "C#Cc1cccc(Nc2ncnc3cc(OCCOC)c(OCCOC)cc23)c1", "note": "[erlotinib] + O=C(Oc1ccc([N+](=O)[O-])cc1)N1CCC(C(O)(c2ccc3c(c2)OCO3)c2ccc3c(c2)OCO3)CC1 [JZL184] (first compound 0.8 µM, partner dose 1 µM)", "cell count": 102},
      {"smiles": "Cc1cc(Nc2cc(N3CCN(C)CC3)nc(Sc3ccc(NC(=O)C4CC4)cc3)n2)n[nH]1", "note": "[Tozasertib] + Cn1cc(C2=C(c3cn(C4CCN(Cc5ccccn5)CC4)c4ccccc34)C(=O)NC2=O)c2ccccc21 [Enzastaurin] (first compound 0.006 µM, partner dose 0.8 µM)", "cell count": 83.3},
      {"smiles": "O=C(CCCCCCC(=O)Nc1ccccc1)NO", "note": "[vorinostat] + C/C(O)=C(\\C#N)C(=O)Nc1cc(Br)ccc1Br [LFM-A13] (first compound 0.08 µM, partner dose 2 µM)", "cell count": 98.5},
      {"smiles": "Oc1cc(-c2nc(-c3ccccc3)[nH]c2-c2ccncc2)ccc1Cl", "note": "+ C/C(O)=C(\\C#N)C(=O)Nc1cc(Br)ccc1Br [LFM-A13] (first compound 0.2 µM, partner dose 2 µM)", "cell count": 71.3},
      {"smiles": "c1cc(-c2cnn3cc(-c4ccc(OCCN5CCCCC5)cc4)cnc23)ccn1", "note": "[Dorsomorphin] + O=C(Oc1ccc([N+](=O)[O-])cc1)N1CCC(C(O)(c2ccc3c(c2)OCO3)c2ccc3c(c2)OCO3)CC1 [JZL184] (first compound 0.4 µM, partner dose 1 µM)", "cell count": 91.1},
      {"smiles": "CN1CCN(c2ccc3nc(-c4c(N)c5c(F)cccc5[nH]c4=O)[nH]c3c2)CC1", "note": "[Dovitinib] + C[As](C)SC[C@H](NC(=O)CC[C@H](N)C(=O)O)C(=O)NCC(=O)O [Darinaparsin] (first compound 0.1 µM, partner dose 0.4 µM)", "cell count": 71.9},
      {"smiles": "Cc1cc(Nc2cc(N3CCN(C)CC3)nc(Sc3ccc(NC(=O)C4CC4)cc3)n2)n[nH]1", "note": "[Tozasertib] + C[As](C)SC[C@H](NC(=O)CC[C@H](N)C(=O)O)C(=O)NCC(=O)O [Darinaparsin] (first compound 0.006 µM, partner dose 0.4 µM)", "cell count": 86.1},
      {"smiles": "C#Cc1cccc(Nc2ncnc3cc(OCCOC)c(OCCOC)cc23)c1", "note": "[erlotinib] + C/C(O)=C(\\C#N)C(=O)Nc1cc(Br)ccc1Br [LFM-A13] (first compound 0.8 µM, partner dose 2 µM)", "cell count": 96.6},
      {"smiles": "Oc1nc(-c2ccc(C(F)(F)F)cc2)nc2c1CSCC2", "note": "+ O=C(Oc1ccc([N+](=O)[O-])cc1)N1CCC(C(O)(c2ccc3c(c2)OCO3)c2ccc3c(c2)OCO3)CC1 [JZL184] (first compound 2 µM, partner dose 1 µM)", "cell count": 98.1},
      {"smiles": "C[C@@H]1CCN(C(=O)CC#N)C[C@@H]1N(C)c1ncnc2[nH]ccc12", "note": "+ Cc1cc(SCc2sc(-c3ccc(C(F)(F)F)c(F)c3)nc2C)ccc1OCC(=O)O [GW0742] (first compound 1 µM, partner dose 2 µM)", "cell count": 95.1},
      {"smiles": "COc1cc2ncnc(Nc3ccc(Oc4ccccc4)cc3)c2cc1OC", "note": "+ O=C(Oc1ccc([N+](=O)[O-])cc1)N1CCC(C(O)(c2ccc3c(c2)OCO3)c2ccc3c(c2)OCO3)CC1 [JZL184] (first compound 2 µM, partner dose 1 µM)", "cell count": 136},
      {"smiles": "C[C@@H]1CCN(C(=O)CC#N)C[C@@H]1N(C)c1ncnc2[nH]ccc12", "note": "+ C/C(O)=C(\\C#N)C(=O)Nc1cc(Br)ccc1Br [LFM-A13] (first compound 1 µM, partner dose 2 µM)", "cell count": 106},
      {"smiles": "COCC[n+]1c2c(n(Cc3cnccn3)c1C)C(=O)c1ccccc1C2=O", "note": "+ C/C(O)=C(\\C#N)C(=O)Nc1cc(Br)ccc1Br [LFM-A13] (first compound 0.0004 µM, partner dose 2 µM)", "cell count": 72.9},
      {"smiles": "Cc1cc(Nc2cc(N3CCN(C)CC3)nc(Sc3ccc(NC(=O)C4CC4)cc3)n2)n[nH]1", "note": "[Tozasertib] + N.N.[Cl][Pt][Cl] [cisplatin] (first compound 0.006 µM, partner dose 1.6 µM)", "cell count": 92.9},
      {"smiles": "COc1cc2ncnc(Nc3ccc(Oc4ccccc4)cc3)c2cc1OC", "note": "+ C/C(O)=C(\\C#N)C(=O)Nc1cc(Br)ccc1Br [LFM-A13] (first compound 2 µM, partner dose 2 µM)", "cell count": 119},
      {"smiles": "O=C(O)C(=O)Nc1sc2c(c1C(=O)O)CCNC2", "note": "+ O=C(Oc1ccc([N+](=O)[O-])cc1)N1CCC(C(O)(c2ccc3c(c2)OCO3)c2ccc3c(c2)OCO3)CC1 [JZL184] (first compound 1.66667 µM, partner dose 1 µM)", "cell count": 105},
      {"smiles": "CC(C)C[C@H](NC(=O)[C@H](Cc1ccccc1)NC(=O)c1cnccn1)B(O)O", "note": "[Bortezomib] + N.N.[Cl][Pt][Cl] [cisplatin] (first compound 0.001 µM, partner dose 1.6 µM)", "cell count": 45.9},
      {"smiles": "CC(C)C[C@H](NC(=O)[C@H](Cc1ccccc1)NC(=O)c1cnccn1)B(O)O", "note": "[Bortezomib] + C[As](C)SC[C@H](NC(=O)CC[C@H](N)C(=O)O)C(=O)NCC(=O)O [Darinaparsin] (first compound 0.001 µM, partner dose 0.4 µM)", "cell count": 37.4},
      {"smiles": "Cc1nc(Nc2ncc(C(=O)Nc3c(C)cccc3Cl)s2)cc(N2CCN(CCO)CC2)n1", "note": "[dasatanib] + C/C(O)=C(\\C#N)C(=O)Nc1cc(Br)ccc1Br [LFM-A13] (first compound 0.004 µM, partner dose 2 µM)", "cell count": 99.8},
      {"smiles": "Cn1c(Nc2ccc(C(F)(F)F)cc2)nc2cc(Oc3ccnc(-c4ncc(C(F)(F)F)[nH]4)c3)ccc21", "note": "+ O=C(Oc1ccc([N+](=O)[O-])cc1)N1CCC(C(O)(c2ccc3c(c2)OCO3)c2ccc3c(c2)OCO3)CC1 [JZL184] (first compound 0.08 µM, partner dose 1 µM)", "cell count": 65},
      {"smiles": "C#Cc1cccc(Nc2ncnc3cc(OCCOC)c(OCCOC)cc23)c1", "note": "[erlotinib] + C[As](C)SC[C@H](NC(=O)CC[C@H](N)C(=O)O)C(=O)NCC(=O)O [Darinaparsin] (first compound 0.8 µM, partner dose 0.4 µM)", "cell count": 82.4},
      {"smiles": "Nc1ccn([C@@H]2O[C@H](CO)[C@@H](O)C2(F)F)c(=O)n1", "note": "[gemcitabine] + C[As](C)SC[C@H](NC(=O)CC[C@H](N)C(=O)O)C(=O)NCC(=O)O [Darinaparsin] (first compound 0.0004 µM, partner dose 0.4 µM)", "cell count": 86.3},
      {"smiles": "COc1cc(N2CCC(N3CCN(C)CC3)CC2)ccc1Nc1ncc(Cl)c(Nc2ccccc2S(=O)(=O)C(C)C)n1", "note": "+ O=C(Oc1ccc([N+](=O)[O-])cc1)N1CCC(C(O)(c2ccc3c(c2)OCO3)c2ccc3c(c2)OCO3)CC1 [JZL184] (first compound 0.08 µM, partner dose 1 µM)", "cell count": 110},
      {"smiles": "Cn1c(Nc2ccc(C(F)(F)F)cc2)nc2cc(Oc3ccnc(-c4ncc(C(F)(F)F)[nH]4)c3)ccc21", "note": "+ C/C(O)=C(\\C#N)C(=O)Nc1cc(Br)ccc1Br [LFM-A13] (first compound 0.08 µM, partner dose 2 µM)", "cell count": 55.4},
      {"smiles": "CO[C@H]1C[C@@H]2CC[C@@H](C)[C@@](O)(O2)C(=O)C(=O)N2CCCC[C@H]2C(=O)O[C@H]([C@H](C)C[C@@H]2CC[C@@H](OCCO)[C@H](OC)C2)CC(=O)[C@H](C)/C=C(\\C)[C@@H](O)[C@@H](OC)C(=O)[C@H](C)C[C@H](C)/C=C/C=C/C=C/1C", "note": "[everolimus] + C[As](C)SC[C@H](NC(=O)CC[C@H](N)C(=O)O)C(=O)NCC(=O)O [Darinaparsin] (first compound 0.02 µM, partner dose 0.4 µM)", "cell count": 74.8},
      {"smiles": "C=CCn1c(=O)c2cnc(Nc3ccc(N4CCN(C)CC4)cc3)nc2n1-c1cccc(C(C)(C)O)n1", "note": "+ O=C(Oc1ccc([N+](=O)[O-])cc1)N1CCC(C(O)(c2ccc3c(c2)OCO3)c2ccc3c(c2)OCO3)CC1 [JZL184] (first compound 0.02 µM, partner dose 1 µM)", "cell count": 76.9}
    ]}
  ]
}
